Laboratory results reported in the supplement of paper PMC4604168 (melanoma cell lines).
The list shows a part of the results. Many values rest on one well or one pass, so single values are uncertain.

System: A101D
Test: cell count relative to DMSO control; melanoma cells; higher = more viable cells
Settings: library dose: standard library concentration; 72 h
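Further: cells treated in 1,536-well plates, then fixed and DAPI-stained, with nuclei counted from automated high-throughput microscope images.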

| SMILES | cell count [%] |
| --- | --- |
| O=C(Nc1ccccc1)c1cc([N+](=O)[O-])ccc1Cl + O=C(O)C(=O)Nc1sc2c(c1C(=O)O)CCNC2 [TCS401] (first compound 10 µM, partner dose 8.33333 µM) | 94.3 |
| Cn1nnc2c(C(N)=O)ncn2c1=O [temozolomide] + O=C1NC(=O)/C(=C/c2ccc(-c3ccc(F)cc3O)o2)S1 [AS252424] (first compound 10 µM, partner dose 5 µM) | 80.2 |
| O=C(Nc1ccccc1)c1cc([N+](=O)[O-])ccc1Cl + O=c1cc(-c2cccc3c2Sc2ccccc2S3)oc(N2CCOCC2)c1 [KU55933] (first compound 10 µM, partner dose 5 µM) | 81.8 |
| Cn1nnc2c(C(N)=O)ncn2c1=O [temozolomide] + COC(=O)c1sccc1S(=O)(=O)Nc1ccc(Nc2ccccc2)cc1OC [GSK0660] (first compound 10 µM, partner dose 5 µM) | 87.8 |
| O=C(Nc1cc(C(F)(F)F)cc(C(F)(F)F)c1)c1cc(Cl)ccc1O + c1cc(-c2cnn3cc(-c4ccc(OCCN5CCCCC5)cc4)cnc23)ccn1 [Dorsomorphin] (first compound 0.08 µM, partner dose 2 µM) | 79.8 |
| O=C(O)[C@@H]1[O][Sb](=[O])([O][Sb]2(=[O])[O][C@H]([C@H](O)CO)[C@H](O)[C@H](C(=O)O)[O]2)[O][C@H]([C@H](O)CO)[C@@H]1O (some centres not stated) [stibogluconate] + O=C1NC(=O)/C(=C/c2ccc(-c3ccc(F)cc3O)o2)S1 [AS252424] (first compound 10 µM, partner dose 5 µM) | 109 |
| O=C(O)[C@@H]1[O][Sb](=[O])([O][Sb]2(=[O])[O][C@H]([C@H](O)CO)[C@H](O)[C@H](C(=O)O)[O]2)[O][C@H]([C@H](O)CO)[C@@H]1O (some centres not stated) [stibogluconate] + CCCCCCCCCCCC1=C(O)C(=O)C=C(O)C1=O [Embelin] (first compound 10 µM, partner dose 6 µM) | 85.3 |
| Cn1nnc2c(C(N)=O)ncn2c1=O [temozolomide] + N#Cc1c(O)c2c(-c3ccc(-c4ccccc4O)cc3)csc2[nH]c1=O [A769662] (first compound 10 µM, partner dose 10 µM) | 87.1 |
| Cc1cc(N2CCOCC2)cc2[nH]c(-c3c(NC[C@@H](O)c4cccc(Cl)c4)cc[nH]c3=O)nc12 + Cc1cc([N+](=O)[O-])ccc1NS(=O)(=O)c1cc(Cl)ccc1Cl [FH535] (first compound 1 µM, partner dose 5 µM) | 55.6 |
| O=C(Nc1cc(C(F)(F)F)cc(C(F)(F)F)c1)c1cc(Cl)ccc1O + COc1cc2ncnc(Nc3ccc(Oc4ccccc4)cc3)c2cc1OC [SrcI1] (first compound 0.08 µM, partner dose 10 µM) | 73 |

System: A2058
Test: as above
Settings: library dose: standard library concentration; 72 h

| SMILES | cell count [%] |
| --- | --- |
| O=C(O)c1ccc2c(c1)nc(Nc1cccc(Cl)c1)c1ccncc12 + CC(C)CCN1c2nc(Nc3cc(F)c(O)c(F)c3)ncc2N(C)C(=O)C1C [BID1870] (first compound 2 µM, partner dose 1 µM) | 64.6 |
| Cc1cc(N2CCOCC2)cc2[nH]c(-c3c(NC[C@@H](O)c4cccc(Cl)c4)cc[nH]c3=O)nc12 + Cn1cc(/C=C2\C(=O)Nc3cccnc32)c2ccccc21 [GW441756] (first compound 1 µM, partner dose 2 µM) | 105 |
| O=C(Nc1ccccc1)c1cc([N+](=O)[O-])ccc1Cl + O=C1NC(=O)/C(=C/c2ccc(-c3ccc(F)cc3O)o2)S1 [AS252424] (first compound 10 µM, partner dose 5 µM) | 103 |
| O=C(O)c1ccc2c(c1)nc(Nc1cccc(Cl)c1)c1ccncc12 + COc1ccc(COc2ccc(Cc3cnc(N)nc3N)cc2OC)cc1 [GW2580] (first compound 2 µM, partner dose 5 µM) | 102 |
| O=C(O)[C@@H]1[O][Sb](=[O])([O][Sb]2(=[O])[O][C@H]([C@H](O)CO)[C@H](O)[C@H](C(=O)O)[O]2)[O][C@H]([C@H](O)CO)[C@@H]1O (some centres not stated) [stibogluconate] + Cn1cc(/C=C2\C(=O)Nc3cccnc32)c2ccccc21 [GW441756] (first compound 10 µM, partner dose 2 µM) | 115 |
| O=C(O)[C@@H]1[O][Sb](=[O])([O][Sb]2(=[O])[O][C@H]([C@H](O)CO)[C@H](O)[C@H](C(=O)O)[O]2)[O][C@H]([C@H](O)CO)[C@@H]1O (some centres not stated) [stibogluconate] + Cc1cc([N+](=O)[O-])ccc1NS(=O)(=O)c1cc(Cl)ccc1Cl [FH535] (first compound 10 µM, partner dose 5 µM) | 83.4 |
| O=C(Nc1cc(C(F)(F)F)cc(C(F)(F)F)c1)c1cc(Cl)ccc1O + O=C(Nc1ccccc1)c1cc([N+](=O)[O-])ccc1Cl [GW9662] (first compound 0.08 µM, partner dose 10 µM) | 96.4 |
| Cc1cc(N2CCOCC2)cc2[nH]c(-c3c(NC[C@@H](O)c4cccc(Cl)c4)cc[nH]c3=O)nc12 + O=S(=O)(c1ccccc1)N(CC(F)(F)F)c1ccc(C(O)(C(F)(F)F)C(F)(F)F)cc1 [T0901317] (first compound 1 µM, partner dose 7 µM) | 96.5 |
| O=C(Nc1cc(C(F)(F)F)cc(C(F)(F)F)c1)c1cc(Cl)ccc1O + O=C1NC(=O)/C(=C/c2ccc(-c3ccc(F)cc3O)o2)S1 [AS252424] (first compound 0.08 µM, partner dose 5 µM) | 95.2 |
| O=C(O)c1ccc2c(c1)nc(Nc1cccc(Cl)c1)c1ccncc12 + CCN(CC)CCCCNc1ncc2cc(-c3cc(OC)cc(OC)c3)c(NC(=O)NC(C)(C)C)nc2n1 [PD173074] (first compound 2 µM, partner dose 0.5 µM) | 87.7 |
| O=C(Nc1cc(C(F)(F)F)cc(C(F)(F)F)c1)c1cc(Cl)ccc1O + COC(=O)c1sccc1S(=O)(=O)Nc1ccc(Nc2ccccc2)cc1OC [GSK0660] (first compound 0.08 µM, partner dose 5 µM) | 97.5 |
| O=C(O)c1ccc2c(c1)nc(Nc1cccc(Cl)c1)c1ccncc12 + COc1cc(N2CCC(N3CCN(C)CC3)CC2)ccc1Nc1ncc(Cl)c(Nc2ccccc2S(=O)(=O)C(C)C)n1 [NVP-TAE684] (first compound 2 µM, partner dose 0.4 µM) | 59.4 |
| Cc1cc(N2CCOCC2)cc2[nH]c(-c3c(NC[C@@H](O)c4cccc(Cl)c4)cc[nH]c3=O)nc12 + O=C1NC(=O)/C(=C/c2ccc(-c3ccc(F)cc3O)o2)S1 [AS252424] (first compound 1 µM, partner dose 5 µM) | 111 |
| O=C(O)[C@@H]1[O][Sb](=[O])([O][Sb]2(=[O])[O][C@H]([C@H](O)CO)[C@H](O)[C@H](C(=O)O)[O]2)[O][C@H]([C@H](O)CO)[C@@H]1O (some centres not stated) [stibogluconate] + COc1cc(N2CCC(N3CCN(C)CC3)CC2)ccc1Nc1ncc(Cl)c(Nc2ccccc2S(=O)(=O)C(C)C)n1 [NVP-TAE684] (first compound 10 µM, partner dose 0.4 µM) | 58.7 |
| O=C(O)c1ccc2c(c1)nc(Nc1cccc(Cl)c1)c1ccncc12 + O=c1cc(-c2cccc3c2Sc2ccccc2S3)oc(N2CCOCC2)c1 [KU55933] (first compound 2 µM, partner dose 5 µM) | 84.3 |
| O=C(Nc1ccccc1)c1cc([N+](=O)[O-])ccc1Cl + COc1ccc(COc2ccc(Cc3cnc(N)nc3N)cc2OC)cc1 [GW2580] (first compound 10 µM, partner dose 5 µM) | 88.4 |
| O=C(O)[C@@H]1[O][Sb](=[O])([O][Sb]2(=[O])[O][C@H]([C@H](O)CO)[C@H](O)[C@H](C(=O)O)[O]2)[O][C@H]([C@H](O)CO)[C@@H]1O (some centres not stated) [stibogluconate] + O=c1cc(-c2cccc3c2Sc2ccccc2S3)oc(N2CCOCC2)c1 [KU55933] (first compound 10 µM, partner dose 5 µM) | 75 |
| O=C(O)c1ccc2c(c1)nc(Nc1cccc(Cl)c1)c1ccncc12 + COc1ccc(-c2ccc3c(N4CCOCC4)nc(N4C[C@@H](C)O[C@@H](C)C4)nc3n2)cc1CO [KU0063794] (first compound 2 µM, partner dose 0.1 µM) | 76.3 |
| O=C(Nc1ccccc1)c1cc([N+](=O)[O-])ccc1Cl + CCN(CC)CCCCNc1ncc2cc(-c3cc(OC)cc(OC)c3)c(NC(=O)NC(C)(C)C)nc2n1 [PD173074] (first compound 10 µM, partner dose 0.5 µM) | 88 |
| Cn1nnc2c(C(N)=O)ncn2c1=O [temozolomide] + COc1cc2ncnc(Nc3ccc(Oc4ccccc4)cc3)c2cc1OC [SrcI1] (first compound 10 µM, partner dose 10 µM) | 53.6 |
| O=C(Nc1ccccc1)c1cc([N+](=O)[O-])ccc1Cl + COC(=O)c1sccc1S(=O)(=O)Nc1ccc(Nc2ccccc2)cc1OC [GSK0660] (first compound 10 µM, partner dose 5 µM) | 98.3 |
| Cc1cc(N2CCOCC2)cc2[nH]c(-c3c(NC[C@@H](O)c4cccc(Cl)c4)cc[nH]c3=O)nc12 + c1cc(-c2cnn3cc(-c4ccc(OCCN5CCCCC5)cc4)cnc23)ccn1 [Dorsomorphin] (first compound 1 µM, partner dose 2 µM) | 75.7 |
